Test results reported in paper PMC10726135.
The list shows a part of the results. At the low end of the ranking the order means little. The protein was read in a cell extract, so binding may be indirect.

What follows are sequences tested against T1, HNF4alpha2 (COS-7 nuclear extract) (UniProt P41235) (assay: protein-binding microarray). Conditions: COS-7 nuclear extract on double-stranded Agilent 4x180k PBM; binding buffer, salt, pH and temperature not given; high values mean tight binding; double strand, one strand shown; sequences stand for … in …GCCTAGGGAGATTAGAGTATCGGTCGA.
T1 sequence: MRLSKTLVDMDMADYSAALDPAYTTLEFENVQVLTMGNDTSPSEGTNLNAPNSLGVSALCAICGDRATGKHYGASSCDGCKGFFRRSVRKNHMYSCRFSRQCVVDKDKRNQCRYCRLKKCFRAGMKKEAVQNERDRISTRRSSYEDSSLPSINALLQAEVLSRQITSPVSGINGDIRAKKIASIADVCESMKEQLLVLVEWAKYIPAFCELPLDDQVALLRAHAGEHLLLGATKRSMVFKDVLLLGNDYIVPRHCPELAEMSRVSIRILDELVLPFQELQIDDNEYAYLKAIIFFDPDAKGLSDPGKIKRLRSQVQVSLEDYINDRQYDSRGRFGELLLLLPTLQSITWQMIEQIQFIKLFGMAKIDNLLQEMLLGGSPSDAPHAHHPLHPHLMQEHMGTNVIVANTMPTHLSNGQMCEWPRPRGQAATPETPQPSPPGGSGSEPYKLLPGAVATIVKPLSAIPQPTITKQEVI

| Sequence | binding signal (log2 normalized intensity) |
| --- | --- |
| CATCCCTCTCCCGCCTCTTGGCCTCCCCCT | 6.01 |
| AAAGGTCAAGAGAATTACAAACAGCCCTGA | -1.04 |
| GCGCAGGCGCAGTCCTCTCTCGCGAGAGCC | -1.17 |
| TGGAATGTCTTTGGGTGGAGGGGAGGTTAT | 1.1 |
| GTATTTTTTGAATGACAGTGTCAGGACCTT | 1.49 |
| GGCTGAGCATCACCAGTGCAGCTGACCTAC | 1.4 |
| AATGTTTGTAGGGACTTTGACCCCTAAAAC | 8.73 |
| TCACAACCTCCCTTTGAAGGAGCCACTGGT | -1.06 |
| AGTGTGGGGTGACTGACTTAACCCTTGCCT | 1.84 |
| ACATTCTTCCTCACATCTCTTCCTTGCTTT | 0.646 |
| TCTTCCTTCATCTGGAGACAAATGCTTTTG | 0.903 |
| ATCCAGCACAGTGCTGGTACATAGCAGGGG | -0.563 |
| TGAACAGCTCTTCTTGCCAGCTGGCCTCCT | -0.861 |
| CAGTCCATTTCAGTGAACTTTTCAATGCTC | 0.555 |
| GATTTTTAGAGCTGGGGCACAATGCTGCAA | -1.17 |
| CATTAATTAACCTTTGAGCTGGGTGGCCCT | 3.3 |
| AGAGCACAGGATCCAGAGGTCACCCAGAGC | 1.32 |
| TTATCTTGATGGTTAAAGTCCAATCTTCTG | 4.1 |
| AGCTGGAGGAGACCTTTGGATATCATATCA | 1.95 |
| CTATCACTGTCTAGCTGTGTAACCCTGGAC | 1.48 |
| TCACCATATCCCTGAGAGGCCAGTTTGACC | 2.83 |
| TGGACTTTGATCCTGATGACTGCAGAGCTT | 5.26 |
| GTAACCACCTCTCTGGGTGGTTCGAGACCC | 0.708 |

| Sequence | binding signal (log2 normalized intensity) |
| --- | --- |
| GCCGTTGGACCAAGCTCTAGCATCCCTCTC | -1.2 |
| ACCTTTGCTCACGTTTTCCTGCTGACCCTC | 3.43 |
| AATGTTTCAAAGTTTTTCCCCTTGGTGGAT | 1.86 |
| ATTTGATAAGATGTGTAAAACACAAATCTC | -1.04 |
| GACATGATCAAAGTTCATTGTAGCCTCAAA | 3.16 |
| GTAGGGCCAATCTCTGGCATGTATTTATCA | 0.384 |
| CACAAAGGTGCAAAGTACATATTTACTTAC | 3.46 |
| AAAGAGATTGGACTTTGGCCTGTGAATCCA | 8.37 |
| GTCCCAAGCATCTCTGAGCAGTGAATGTTG | -0.97 |
| GGGCAATGACCTGGACAGGTCCAAGGTTCT | 1.7 |
| AGAGACTAGTATGTAAATAAGAGCTTTGCA | -0.887 |
| CCCACAATCAGTCTGATTGGTTGCAGAAGG | 1.06 |
| AGCAGCTTGAGGCTCCGATAAACCCAGGCA | -1.24 |
| GCTTTTGCACTTTACTCAGAAAGGTCAGCG | 2.81 |
| AGAAATTGCGCTAACCAGATGGTAGATGGG | 0.522 |
| CTGACTAGGACAGAGCAGATGAAAGTAGTT | -0.684 |
| GAAGCCCAGCAGCTCCAGGAGACGTAGAGA | -1.22 |
| CTCTGTGAAGTGGAGATAATAGGAGATAAT | 0.0446 |
| GAATTTCATTTTGCTCTTTGTTCAGATACA | 1.33 |
| CTGCACTTTTGTGCTCTGTACCCGGCTGCC | 1.13 |
| GGGCTGGGGGCAGGGCTGGTCGGATGGCCG | -0.96 |
| TCCCTCATTAGTAACTCCAGAGATAAGATA | 0.0683 |
| ATGGAAGTTTGCCCTGGTTGAGGAATTTGG | 1.62 |
